The whole screen tested about 50,000 compounds, of which about 800 (1.6%) showed an effect of 50% or more. Some of the results follow.
Target: Bcl-2-like protein 10 (Homo sapiens) (UniProt Q9HD36)
Assay: Phenotype converters, Bcl-B/TR3 peptide binding displacement, primary biochemical FP (AID 1240);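 also: 0% = Bcl-B with tracer peptide and DMSO and 100% = tracer peptide lacking Bcl-B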
Settings: GST-Bcl-B / FITC-TR3 peptide fluorescence polarization; stronger effect = higher value; compound at 3.75 mg/L

Chain of UniProt Q9HD36 (Q9HD36 whole entry, looked up): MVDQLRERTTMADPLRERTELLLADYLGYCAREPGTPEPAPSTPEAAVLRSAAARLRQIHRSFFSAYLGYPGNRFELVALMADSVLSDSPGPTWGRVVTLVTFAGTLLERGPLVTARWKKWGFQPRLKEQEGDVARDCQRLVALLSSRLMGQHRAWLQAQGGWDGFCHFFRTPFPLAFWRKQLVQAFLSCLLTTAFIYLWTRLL

| SMILES | displacement [%] |
| --- | --- |
| COc1cc(OC)cc(C(=O)NC2CCCCCC2)c1 | -0.3 |
| O=C(N=Nc1c(O)[nH]c(=O)[nH]c1=O)c1cccc([N+](=O)[O-])c1 | 12.2 |
| O=C1OC(c2ccc(F)cc2)=N/C1=C\c1ccc(OC(=O)c2ccccc2Cl)cc1 | 13.6 |
| COc1ccc(C)cc1NC(=O)COc1ccc(Cl)cc1C | -5.2 |
| C=C(C)CNC(=S)NC1=C(C)N(C)N(c2ccccc2)C1=C | -10.7 |
| CCOc1cc(OCC)cc(C(=O)Nc2ccc(NC(=O)c3ccco3)c(OC)c2)c1 | -3.3 |
| CCN(Cc1ccccc1)C(=O)c1ccc(Cl)c([N+](=O)[O-])c1 | -3.2 |
| O=C(Cn1c2ccccc2c(=O)c2ccccc21)N/N=C/c1cc(Cl)cc(Cl)c1O | -53.1 |
| CCSCCOC(=O)C1=C(C)N(C)C(=O)NC1c1ccc(OC)cc1 (stereo not given) | 2.9 |
| c1ccc2c(c1)ncn2CCOCCOCCn1cnc2ccccc21 | 13.2 |
| CC1/C(=N\O)CC(c2ccco2)NC1c1ccco1 (stereo not given) | 8.6 |
| O=C(c1cccc(C(=O)N2CCCc3ccccc32)c1)N1CCCc2ccccc21 | -5.4 |
| CC1CCc2c(sc(NC(=O)C3CC3)c2C(=O)OC(C)C)C1 (stereo not given) | 1.9 |
| O=C1CCCN1CP(=O)(O)CN1CCCC1=O | 1.7 |
| COc1cccc(N(CC(=O)NCC(C)C)S(=O)(=O)c2ccccc2)c1 | 20.5 |
| CC1=C(C)CC(C(=O)Nc2ccc(S(=O)(=O)N3CCOCC3)cc2)C(C(=O)O)C1 (stereo not given) | 0.1 |
| O=C(CN(c1cccc([N+](=O)[O-])c1)S(=O)(=O)c1ccccc1)Nc1ccc(F)c(Cl)c1 | 10.1 |
| O=C(Nc1c(C(=O)N2CCC(Cc3ccccc3)CC2)cnn1-c1ccccc1)c1cccc(F)c1 | 3.5 |
| c1ccc2c(CN3CCCC3)ccc(CN3CCCC3)c2c1 | 10.9 |
| COc1ccc(C(=O)N2CCN(Cc3c[nH]c4ccccc34)CC2)cc1OC | -11.1 |
| Fc1cccc(CN2CCN(Cc3ccco3)CC2)c1 | -1 |
| CN1C(=O)C(=Cc2ccc(O)c(Cl)c2)C(=O)N(C)C1=O | 4.4 |

| SMILES | displacement [%] |
| --- | --- |
| Nc1ccc2nc(SCc3ccc(Br)cc3)sc2c1 | -3.8 |
| O=c1c2ccccc2nc(/C=C\c2ccccc2O)n1-c1cccc2ccccc12 | -6.6 |
| O=S(=O)(Cc1ccccc1)Nc1ccccn1 | 2.2 |
| O=C(c1ccncc1)N1N=C(c2ccc(Cl)cc2)CC1(O)C(F)(F)F (stereo not given) | 3.5 |
| COc1ccc(NC(=O)c2ccncc2)cc1Cl | 1.2 |
| COC(=O)c1c(NC(=O)c2sc3cc(C)ccc3c2Cl)sc2c1CCCC2 | -0.6 |
| CCC(C)c1ccc(OCCOc2ccc(C=C3C(=O)NC(=S)NC3=O)cc2OC)cc1 (stereo not given) | 10.2 |
| CC1=NN(c2ccc(S(N)(=O)=O)cc2)C(=O)/C1=C\c1ccc(OCc2ccccc2)cc1 | 13 |
| O=C1N/C(=N/N=C/c2ccc3c(c2)OCO3)SC1c1ccccc1 (stereo not given) | 10.9 |
| O=c1c2c3c(sc2nc(SCc2ccccc2)n1Cc1ccccc1)CCC3 | -0.7 |
| O=C(O)c1sc2ccccc2c1Cl | 13.5 |
| CC(=O)Nc1ccccc1C(=O)N1CC(C)OC(C)C1 (stereo not given) | -7.2 |
| O=C1NC(=S)NC(=O)C1=Cc1ccccc1OCc1ccc([N+](=O)[O-])cc1 | 12.7 |
| Cc1ccc(S(=O)(=O)N(CC(O)Cn2c3ccccc3c3ccccc32)CC2CCCO2)cc1 (stereo not given) | 0.4 |
| O=S(=O)(Nc1nc2ccccc2nc1NCc1ccccc1)c1ccc(Cl)cc1 | 10.1 |
| C=CCN1C(=O)/C(=C\c2ccc(OCc3ccccc3F)c(OC)c2)C(=O)NC1=S | -0.9 |
| COc1ccc(CN2CCN(C3CCCCCC3)CC2)c(OC)c1OC | -14.3 |
| CCOC(=O)C1=C(C)N=C2SCC(=O)N2C1c1ccc2c(c1)OCO2 (stereo not given) | -15.6 |
| CCOc1cc(C2C(C(=O)OCCSCC)=C(C)NC3=C2C(=O)CC(c2ccc(Cl)cc2)C3)cc(Cl)c1O (stereo not given) | -20.8 |
| O=C(Nc1ccc(Cl)cn1)c1ccc(OCc2ccccc2)cc1 | 3.7 |
| COc1ccc(Br)cc1C=C1C(=O)N(C)C(=O)N(C)C1=O | 1.2 |
| O=C1CC(c2ccccc2)CC(O)=C1C=Nc1ccc(Br)cc1 (stereo not given) | -3.8 |

| SMILES | displacement [%] |
| --- | --- |
| Cc1cc(C)cc(OCC(O)CNC(C)(C)C)c1 (stereo not given) | 7.4 |
| CN(C)c1ccc(/C=N/NC(=O)CNC(=O)c2ccc(F)cc2)cc1 | 2.3 |
| CC(=O)N/C(=C\c1ccc(F)cc1)C(=O)NC(C(=O)O)C(C)C (stereo not given) | 81.8 |
| Cc1nn(CC(=O)O)c(=O)c2ccccc12 | -3.8 |
| O=C1CC(c2ccccc2)CC2=C1C(c1ccccc1Cl)Nc1ccccc1N2 (stereo not given) | -7.2 |
| COc1ccc(CC(=O)NCc2ccc3c(c2)OCO3)cc1 | -3.7 |
| CCN(CC)c1ccc(Nc2nc(-c3sc(N)nc3C)cs2)cc1 | -13.5 |
| Cc1nc(SCC#N)c(C#N)c(C)c1C | -1.7 |
| O=C(N/N=C/c1cn(Cc2ccccc2)c2ccccc12)C1COc2ccccc2O1 (stereo not given) | -2.4 |
| CCC1CCCCN1C(=O)c1cnn2c(C(F)(F)F)cc(-c3ccc(C)cc3)nc12 (stereo not given) | 44.8 |
| Cc1ccc(C(=O)Nc2cccc(F)c2)cc1S(=O)(=O)N1CCOCC1 | -14.9 |
| CC1(C)CC(NC(=O)COc2cccc3ccccc23)CC(C)(C)N1 | -4 |
| CN(C)c1ccc(/C=N/N=C2/NC(=O)C(c3ccccc3)(c3ccccc3)S2)cc1 | -4.8 |
| CCOc1ccc(C(=O)Nc2cc(C)ccn2)cc1[N+](=O)[O-] | 1.6 |
| CCOc1cccc(C(=O)Nc2nc(-c3ccc(C)cc3)cs2)c1 | -2.7 |
| O=C(O)CCC(C(=O)O)N1C(=O)/C(=C\C(Cl)=C/c2ccc([N+](=O)[O-])cc2)SC1=S (stereo not given) | 32.9 |
| COc1ccc(Br)cc1/C=N\N1CCN(c2ccccc2OC)CC1 | 3.9 |
| Cc1ccc(N2C(=O)C3CCCCC3C2=O)cc1Cl (stereo not given) | -11 |
| O=C(/C=C/c1ccccc1Cl)NCCN1CCOCC1 | 2.8 |
| Cc1c(Cc2ccccc2)sc(NC(=O)CCc2ccccc2)c1C(N)=O | -9.6 |
| Cc1c(N=Cc2cc3c(cc2Cl)OCO3)c(=O)n(-c2ccccc2)n1C | 5.2 |
| Cc1ccc(NC(=O)C2CCCN2S(=O)(=O)c2ccc(C)cc2)cc1 (stereo not given) | 13.4 |

| SMILES | displacement [%] |
| --- | --- |
| Cc1ccc(NCC(=O)N/N=C\c2c(Br)cc(Br)c(O)c2Br)cc1 | 6.9 |
| CC(Oc1ccccc1)C(=O)Nc1cccc([N+](=O)[O-])c1 (stereo not given) | 5.1 |
| CCOC(=O)c1sc(NC(=O)COc2ccc(Cl)cc2C)c(C(=O)OCC)c1C | -5.1 |
| Cc1ccc2nc(/C(C#N)=C\c3ccc([N+](=O)[O-])o3)[nH]c2c1 | -8.8 |
| COc1ccc(/C(O)=C/c2nc3ccccc3n(-c3ccccc3)c2=O)cc1 | -5.5 |
| CCOc1c(Br)cc(/C=C2/C(=O)N(c3ccccc3)N=C2C)cc1OC | -0.6 |
| C=C(C)C(=O)Oc1ccc(N2C(=O)CCC2=O)cc1 | 5.8 |
| NC(=O)NC(Cc1ccccc1)Cc1ccccc1 | 0.2 |
| COc1ccc(OC)c(NC(=O)c2ccccc2N(Cc2ccccc2)S(=O)(=O)c2ccccc2)c1 | 1.9 |
| Cc1cc(C)cc(-n2c(C)cc(/C=N/NC(=O)c3cccnc3)c2C)c1 | 30.2 |
| CCn1c(-c2ccc(C(C)(C)C)cc2)n[nH]c1=S | -17.4 |
| O=C1c2ccccc2NC(c2ccc(-c3ccccc3[N+](=O)[O-])o2)N1c1ccccc1 (stereo not given) | 16.8 |
| O=C1C(C=NC2CC2)=C(O)c2ccccc21 | 23.8 |
| C=CCN1C(=O)C(C)(C)N(C(C)=O)c2ccccc21 | -4.8 |
| COc1cc(/C=C2\C(=O)N(c3cccc(C(=O)O)c3)N=C2C)cc(I)c1O | -31.6 |
| CSc1ccc(CN2CCN(S(=O)(=O)c3ccc(C)cc3)CC2)cc1 | 13.7 |
| CCOc1cc(/C=C2\SC(=Nc3ccc(C)c(Cl)c3)NC2=O)ccc1O | -2.8 |
| COc1ccc(/C=C2/SC(=S)NC2=O)cc1I | -25.1 |
| CC(=O)c1ccc(N(C(C)=O)C2=C(N3CCCCC3)C(=O)c3ccccc3C2=O)cc1 | 13.1 |
| O=C(CCC(=O)c1ccccc1)OCC(=O)c1ccc2c(c1)OCCO2 | -9.4 |
| O=C(NCCCCc1ccccc1)c1sc2ccccc2c1Cl | 15.7 |
| O=C1C2C(C(=O)N1Cc1cccnc1)C1C=CC2C12CC2 (stereo not given) | -10.3 |

| SMILES | displacement [%] |
| --- | --- |
| O=C(N/N=C\c1cc(I)cc(I)c1O)c1ccc([N+](=O)[O-])cc1 | 45.1 |
| O=C1C=CC(=NS(=O)(=O)c2ccc(Cl)cc2)C=C1 | 2.1 |
| COc1ccc(S(=O)(=O)Nc2cc([N+](=O)[O-])ccc2C)cc1 | 3.2 |
| O=C1C(=O)N(c2ccccc2Br)C(=O)N1c1cccc(Cl)c1 | 5.7 |
| Cn1c(O)c(C=NC(C)(CO)CO)c(=O)n(C)c1=S | -25.2 |
| O=C(NCc1cccs1)c1cnn2c(C(F)(F)F)cc(-c3ccco3)nc12 | -8.7 |
| OCCNCCOc1cccc(Cl)c1Cl | 2.8 |
| COc1ccc(N(CC(=O)Nc2ccccc2Br)S(=O)(=O)c2ccccc2)cc1Cl | -1 |
| CCOc1ccc(NC(=O)c2cc(-c3ccc(OC)cc3)nc3ccccc23)cc1 | 12.1 |
| O=C1C2C3c4ccccc4C(c4ccccc43)C2C(=O)N1c1cc(C(F)(F)F)ccc1Cl (stereo not given) | -0.1 |
| O=C1CSC(c2ccc(Cl)cc2)N1c1ccc(Cl)c(Cl)c1 (stereo not given) | 18.2 |
| O=C(Nc1cccc(Cl)c1)c1cccc(NC(=O)c2ccco2)c1 | 1.5 |
| CC1CCN(C(=O)c2ccc(N(C)S(=O)(=O)c3ccccc3)cc2)CC1 | -1.2 |
| CCN(CC)c1ccc(/C=N/NC(=O)CCc2c(C)n[nH]c2C)cc1 | -4.5 |
| CC1CCN(CCOCCOc2c(Cl)cc(Cl)cc2Cl)CC1 | -7.5 |
| Cc1ccc(CN2CCN(/N=C/c3ccc(C(=O)O)cc3)CC2)cc1 | 16.4 |
| CC(=O)Nc1ccccc1NC(=O)c1ccccc1F | -14.1 |
| O=C(COc1ccc(Cl)cc1)N1CCN(C(=O)COc2ccc3ccccc3c2)CC1 | -9.7 |
| O=C1NC(=S)SC1=C1CCCCC1 | 2.6 |
| O=C(NCCc1ccccc1)c1cncc(Br)c1 | -3.2 |
| Cc1[nH]n(-c2ccccc2)c(=O)c1C(=O)C(F)(F)F | 12.1 |
| COCCNS(=O)(=O)c1ccccc1[N+](=O)[O-] | -7.8 |

From PubChem BioAssay AID1240 (Sanford-Burnham Center for Chemical Genomics, 2008)
